Test results: PubChem BioAssay AID1347430 (National Center for Advancing Translational Sciences (NCATS), 2020)
Hit rate of the full screen: of about 91,000 compounds, about 130 (0.14%) were called active. This list was built around the results that the source calls inconclusive (neither active nor inactive); the mix of calls is not that of the screen. Calls come from the whole dose curve; as a rule, active = well fitted inhibition curve with a large enough effect; inconclusive = small, poorly fitted or top-dose-only effect; inactive = flat fitted curve, though single readings scatter. Potencies beside an inconclusive call are fits to weak or partial responses and may not hold up.

Each compound was assayed on Uracil-DNA glycosylase (assay: Primary qHTS assay for inhibitors of Activation Induced Cytidine Deaminase (AID): UDG Counterscreen signal). Details: FRET deamination/UDG coupled assay, UDG read, 4 h; activity change, negative = inhibition: at 115 µM (top of the series).
% is set by controls: 0 for no effect and ±100 for the full control effect; potency is the fitted concentration of half-maximal effect; tags give direction and shape of the fitted curve.
Note: nearly all actives have a fitted effect of over 65% in size.

Structure (SMILES) | activity change, negative = inhibition | Potency
Cc1ccc(-c2nc(C#N)c(N3CCOCC3)o2)cc1 | inactive: 0.551% | –
COc1ccccc1N1CCN(C(=O)C2CCN(S(=O)(=O)c3cccs3)CC2)CC1 | – | inconclusive: 100 µM [inhibitor, partial curve, poor fit]
O=C(CSc1c2c(nc3ccc(Cl)cc13)CCCC2)N1CCN(c2ccc(Cl)cc2)CC1 | – | inconclusive: 35.5 µM [inhibitor, partial curve, poor fit]
Cc1ccc(-n2ncc3c(NCCc4ccccc4)ncnc32)cc1Cl | – | inconclusive: 89.1 µM [inhibitor, partial curve, poor fit]
COc1cccc(OCCn2c(-c3ccc(Cl)cc3)nc3ccccc3c2=O)c1 | – | inconclusive: 100 µM [inhibitor, single point]
NC(=O)COc1cccc(C2CC(=O)Nc3nc(N4CCCCC4)sc32)c1 (stereo not drawn) | inactive: -17.4% | –
CCN(CC(=O)NCc1cccs1)C(=O)C1CC(=O)N(c2cccc3ccccc23)C1 (stereo not drawn) | inactive: 4.05% | –
C(=Nc1ccccc1)c1ccccc1OCc1ccccc1 | inactive: -6.39% | –
COC(=O)c1ccc(NC(=O)C(C)N2Cc3ccccc3C2=O)cc1 (stereo not drawn) | – | inconclusive: 100 µM [inhibitor, single point]
COc1ccc(N2CCN(C(=O)c3c(C)oc4ncn(CC(C)C)c(=O)c34)CC2)cc1 | – | inconclusive: 89.1 µM [inhibitor, single point]
c1ccc(CN2CCC(=NNc3nncc4ccccc34)CC2)cc1 | inactive: 5.03% | –
O=S1(=O)CCN(Cc2cccc(Br)c2)c2c(F)nc(N3CCOCC3)c(F)c21 | inactive: -6.95% | –
CC(=O)N1CCN(C(C(=O)O)c2c[nH]c3ccccc23)CC1 (stereo not drawn) | inactive: 5.42% | –
CCc1ccc(-c2nc(CN3CCCC(C(=O)NCc4ccccc4Cl)C3)c(C)o2)cc1 (stereo not drawn) | – | inconclusive: 79.4 µM [inhibitor, partial curve, poor fit]
Cn1c(=O)n(C)c2cc(NS(=O)(=O)c3ccc(Cl)cc3)c(NCc3ccccc3)cc21 | – | inconclusive: 89.1 µM [inhibitor, single point]
Cc1cc(C)cc(OCC(=O)Nc2ccc(-c3nc4ccccc4s3)cc2)c1 | – | inconclusive: 89.1 µM [inhibitor, single point]
COc1ccc(N(CC(=O)NCCc2ccccc2)S(=O)(=O)c2ccccc2)c(OC)c1 | – | inconclusive: 89.1 µM [inhibitor, partial curve, poor fit]
Cc1ccc(C(=O)COC(=O)c2cc3ccccc3[nH]2)c(C)c1 | – | inconclusive: 89.1 µM [inhibitor, single point]
CCc1ccc(C(=O)COC(=O)C(Cc2c[nH]c3ccccc23)NC(=O)c2ccc(Br)cc2)cc1 (stereo not drawn) | – | inconclusive: 79.4 µM [inhibitor, partial curve, poor fit]
Cc1ccccc1-c1nn2c(=O)cc(CN3CCN(C(=O)c4ccc(C(C)(C)C)cc4)CC3)nc2s1 | – | inconclusive: 89.1 µM [inhibitor, single point]
CC(C)OC(=O)c1cc(C(=O)O)c(C(=O)OC(C)C)cc1C(=O)O | inactive: -5.08% | –
O=C(CSc1nc2ccccc2nc1Cc1ccccc1)Nc1ccc2c(c1)OCO2 | – | inconclusive: 100 µM [inhibitor, single point]
O=C(OCc1ccccc1Cl)c1ccc(-c2nnn(Cc3ccccc3)n2)cc1 | – | inconclusive: 100 µM [inhibitor, single point]

Structure (SMILES) | activity change, negative = inhibition | Potency
Cn1c(NCc2ccccc2Cl)nc2c1c(=O)n(Cc1ccccc1F)c(=O)n2C | inactive: -4.92% | –
COCCNc1nc(NCc2ccccc2OC)c2cnn(C)c2n1 | inactive: 9.28% | –
O=C(CN(c1cccc(Br)c1)S(=O)(=O)c1ccccc1)N1CCc2ccccc2C1 | – | inconclusive: 89.1 µM [inhibitor, single point]
Cn1c(=O)ccn(CC(=O)Nc2nc(C3CC3)cs2)c1=O | inactive: 0.268% | –
Cc1ccc(C)c(OCCSc2nc3ccccc3n2CC(=O)N2CCOCC2)c1 | – | inconclusive: 89.1 µM [inhibitor, single point]
Cc1c(Cl)cccc1Nc1sc(C(=O)c2ccccc2)c(N)c1S(=O)(=O)c1ccccc1 | – | inconclusive: 79.4 µM [inhibitor, single point]
COc1ccc(C2CC(=O)Nc3nc(N)sc32)cc1OCc1ccccc1Cl (stereo not drawn) | inactive: -6.24% | –
Cc1ccc(S(=O)(=O)NCC(c2cccs2)N(C)C)s1 (stereo not drawn) | inactive: 5.88% | –
O=S(=O)(NCCc1ccc(-n2cccn2)cc1)c1ccccc1 | inactive: -5.25% | –
CCN(CC)CCCNC(=O)c1c(C)oc2ncn(CC(C)C)c(=O)c12 | – | inconclusive: 100 µM [inhibitor, single point]
Cn1c(=O)n(C)c2cc(NS(=O)(=O)c3ccc(Br)cc3)c(NCc3ccccc3)cc21 | – | inconclusive: 89.1 µM [inhibitor, single point]
Nc1c(-c2nc(-c3ccc(Cl)cc3)cs2)c2ccccn2c1C(=O)c1ccc2c(c1)OCO2 | – | inconclusive: 89.1 µM [inhibitor, partial curve, poor fit]
CCN(c1ccccc1)c1nnc(NC(=O)Nc2cccc(Br)c2)s1 | – | inconclusive: 31.6 µM [inhibitor, partial curve, poor fit]
O=C1CC(c2nc3ccccc3n2CCCOc2ccccc2)CN1c1ccc(F)cc1 (stereo not drawn) | – | inconclusive: 100 µM [inhibitor, single point]
Cc1ccc(CNC(=O)c2ccc(CSCc3ccc(C)cc3)o2)cc1 | – | inconclusive: 89.1 µM [inhibitor, partial curve, poor fit]
Cc1cc(C)n(CCc2nc3c4ccccc4nc(N4CCN(c5ccccc5F)CC4)n3n2)n1 | – | inconclusive: 100 µM [inhibitor, single point]
COc1ccc(OCCCCn2c(C3CC(=O)N(c4cccc(Cl)c4)C3)nc3ccccc32)cc1 (stereo not drawn) | – | inconclusive: 89.1 µM [inhibitor, single point]
CCOC(=O)C1CCN(CC(=O)N2CCCc3c2c(=O)oc2ccc(OCc4ccccc4)cc32)CC1 | – | inconclusive: 100 µM [inhibitor, single point]
CCOC(=O)c1c(NC(=O)CN2CCc3ccccc32)sc(C)c1CC | – | inconclusive: 89.1 µM [inhibitor, single point]
Cc1ccc(C)n1-c1nnc(N2CCCC(C(=O)Nc3ccc(C(C)C)cc3)C2)s1 (stereo not drawn) | – | inconclusive: 89.1 µM [inhibitor, single point]
Cc1ccc(CNC(=O)c2ccc3c(c2)nc(C)n3-c2cc(C)cc(C)c2)cc1 | – | inconclusive: 39.8 µM [inhibitor, single point]
CC(C)(C)c1ccc(-c2nnc(SCC(=O)N3CCCC3)n2C2CCCC2)cc1 | inactive: 2.13% | –
CN(C)CCN(Cc1cccc(F)c1)C(=O)c1cccc(S(C)(=O)=O)c1 | inactive: 3.49% | –

Structure (SMILES) | activity change, negative = inhibition | Potency
CC(C)Cc1nc2cccnc2n1C1CCN(S(=O)(=O)c2ccc(Br)s2)CC1 | – | inconclusive: 89.1 µM [inhibitor, single point]
CCCCOc1c(Cl)cc(C(=O)N(Cc2ccc(C)o2)C2CCS(=O)(=O)C2)cc1Cl (stereo not drawn) | – | active: 89.1 µM
Cc1cc(C)c2oc(C(=O)N(Cc3ccc(F)cc3)C3CCS(=O)(=O)C3)cc(=O)c2c1 (stereo not drawn) | – | inconclusive: 39.8 µM [inhibitor, partial curve, poor fit]
CN(C(=O)Cn1c(=O)n(CCCS(=O)(=O)C2CCCCC2)c(=O)c2ccccc21)c1ccccc1 | inactive: -1.2% | –
O=C(Cn1c(=O)oc2ccccc21)NCc1cccc(Cl)c1 | – | inconclusive: 100 µM [inhibitor, single point]
COc1cccc(OC(=O)CSc2nnc(-c3ccccc3OC)o2)c1 | – | inconclusive: 89.1 µM [inhibitor, single point]
COc1ccc(C(=O)O)cc1Nc1nc2ccc(C)cc2n2cnnc12 | – | inconclusive: 100 µM [inhibitor, partial curve, poor fit]
CC1CCC(C)[S+]1c1cc(O)ccc1O (stereo not drawn) | – | inconclusive: 35.5 µM [inhibitor, partial curve]
CCOc1ccc(-c2csc(-c3ccc(Cl)cc3)n2)cc1 | inactive: -7.65% | –
CCOC(=O)c1ccc(-n2c(N)c(C(=O)OC)c3nc4ccccc4nc32)cc1 | – | inconclusive: 20 µM [inhibitor, full curve]
COc1ccccc1-c1nc(S(=O)(=O)c2ccc(Cl)cc2)c(N2CCCCCC2)o1 | – | inconclusive: 25.1 µM [inhibitor, full curve, poor fit]
O=C(COc1ccc(F)cc1)NC1CCCN(c2ncccn2)C1 (stereo not drawn) | inactive: -19% | –
Cc1n[nH]c(C)c1S(=O)(=O)Nc1ncn(Cc2ccc(F)cc2Cl)n1 | inactive: -0.189% | –
Cc1ccc(NC(=O)CCCn2nc(C)c3c(C)n(-c4ccccc4)nc3c2=O)cc1Cl | – | inconclusive: 89.1 µM [inhibitor, single point]
CC(CNc1nc2ccccc2c2nc(-c3ccccc3)nn12)c1ccccc1 (stereo not drawn) | – | inconclusive: 89.1 µM [inhibitor, partial curve, poor fit]
O=[N+]([O-])c1ccc(N/N=C/c2ccccc2Br)cc1 | inactive: -8.94% | –
COc1cc(/C=N/O)c(Br)cc1OC(C)C | inactive: 7.09% | –
O=C(CCC1CCCC1)N1CCN(CC2CC=CCC2)CC1 (stereo not drawn) | inactive: -5.57% | –
COc1ccc(CNC(=O)Cc2c(C)c3c(O)cc(C)cc3oc2=O)cc1 | – | inconclusive: 89.1 µM [inhibitor, single point]
O=c1cc(CN2CCN(c3cccc(Cl)c3)CC2)c2cc(Cl)ccc2o1 | inactive: -6.15% | –
COc1cccc(CNC(=O)C(Cc2ccccc2)NS(=O)(=O)c2ccc3c(c2)CCN3C(C)=O)c1 (stereo not drawn) | – | inconclusive: 89.1 µM [inhibitor, single point]
CN(C)c1ccc(C(=O)OC(C(=O)c2ccccc2)c2ccccc2)cc1 (stereo not drawn) | inactive: -5.97% | –
